{"source": "PubChem BioAssay AID1477", "about": "(National Center for Advancing Translational Sciences (NCATS), 2009)", "note": "Out of some 230,000 compounds screened, fewer than 10 were called active. The inconclusive results got no clear call from the source; some entries with a clear call stand among them for comparison. Calls come from the whole dose curve; as a rule, active = well fitted curve in the direction sought with a large enough effect; inconclusive = small, poorly fitted or top-dose-only effect, or effect the other way, or another doubt; inactive = no such curve, though single readings can be large or run the other way. No potency is given beside an inconclusive call; the fits are too rough."}
{"biological_target": "Runt-related transcription factor 1 (Homo sapiens) + Core-binding factor subunit beta (Homo sapiens) (UniProt Q01196+Q13951)", "sequence (Q01196 whole entry, looked up)": "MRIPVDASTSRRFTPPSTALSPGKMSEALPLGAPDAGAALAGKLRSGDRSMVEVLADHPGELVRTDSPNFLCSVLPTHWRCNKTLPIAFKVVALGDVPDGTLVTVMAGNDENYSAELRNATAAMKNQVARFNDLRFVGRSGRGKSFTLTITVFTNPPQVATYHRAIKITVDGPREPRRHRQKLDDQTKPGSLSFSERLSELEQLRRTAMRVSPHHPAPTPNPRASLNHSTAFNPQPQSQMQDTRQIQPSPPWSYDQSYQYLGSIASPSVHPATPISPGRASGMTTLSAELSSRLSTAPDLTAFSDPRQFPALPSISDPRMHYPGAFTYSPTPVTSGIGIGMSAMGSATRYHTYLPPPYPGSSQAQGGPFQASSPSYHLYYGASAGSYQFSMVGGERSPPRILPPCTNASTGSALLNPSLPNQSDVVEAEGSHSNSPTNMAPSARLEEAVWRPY", "sequence (Q13951 whole entry, looked up)": "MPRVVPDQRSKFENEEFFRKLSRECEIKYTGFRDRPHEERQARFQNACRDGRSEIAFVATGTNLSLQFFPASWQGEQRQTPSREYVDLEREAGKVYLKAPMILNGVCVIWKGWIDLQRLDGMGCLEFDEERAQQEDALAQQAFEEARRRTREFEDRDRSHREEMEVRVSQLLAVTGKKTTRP", "experiment": "qHTS Assay for Compounds Blocking the Interaction Between CBF-beta and RUNX1 for the Treatment of Acute Myeloid Leukemia; for activity, negative = inhibition: % of control where 0% means no effect", "conditions": "AlphaScreen CBFb-His/RUNX1-biotin binding, biochemical; activity, negative = inhibition: at 59.8 µM (top of the series) unless noted", "summary_of_the_method": "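CBF-beta (His) and RUNX1 (biotin), 30 nM each; 20 min preassociation; + compound, 15 min; + beads 50 ng each (Ni, streptavidin), 90 min; RT; AlphaScreen read.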"}
{"smiles": "CN(C)c1ccc(C(=S)N2CCN(Cc3ccccc3)CC2)cc1", "Potency": "inconclusive [inhibitor, single point]"}
{"smiles": "COC(=O)c1ccc(C)c(NC(=O)c2ccc(Cn3cc([N+](=O)[O-])cn3)o2)c1", "activity, negative = inhibition": "inactive: -10.7%"}
{"smiles": "Cc1ccc(CN2CCN(/N=C/c3ccc(Cl)c([N+](=O)[O-])c3)CC2)cc1", "Potency": "inconclusive [inhibitor, partial curve]"}
{"smiles": "CC(C)[C@H](NC(=O)c1ccco1)C(=O)OCC(=O)Nc1cccc(F)c1", "activity, negative = inhibition": "inactive: -1.58%"}
{"smiles": "CCN(CC)S(=O)(=O)c1cccc(-c2nnc(SCCOc3ccc(Cl)cc3)o2)c1", "Potency": "inconclusive [activator, partial curve, poor fit]"}
{"smiles": "CC1=C(C(N)=O)C(c2ccc3c(c2)OCO3)n2nc(-c3cccc(C)c3)nc2N1", "note": "(centres undefined)", "Potency": "inconclusive [inhibitor, partial curve]"}
{"smiles": "COc1ccc(CCN2C(=S)NC3CC2(C)Oc2ccc([N+](=O)[O-])cc23)cc1OC", "note": "(centres undefined)", "activity, negative = inhibition": "inactive: -22.3%"}
{"smiles": "CSc1ccc(C#N)cc1NC(=O)c1cccnc1Cl", "activity, negative = inhibition": "inactive: 1.69%"}
{"smiles": "Cc1ccc(C(=O)N2CCC3(CC2)Oc2ccc(Cl)cc2C(=O)C32CC(c3ccc(Cl)cc3)=NO2)s1", "note": "(centres undefined)", "Potency": "inconclusive [activator, full curve, poor fit]"}
{"smiles": "CCc1cccc(CC)c1NC(=S)NCCc1c(C)[nH]c2ccccc12", "Potency": "inconclusive [inhibitor, single point]"}
{"smiles": "S=c1[nH]nc(Cc2cccc3ccccc23)n1-c1ccccc1", "activity, negative = inhibition": "inactive: 0.648%"}
{"smiles": "COc1ccc([C@H]2[C@H](C(C)=O)N3N=Cc4ccccc4C3C23C(=O)OC(C)(C)OC3=O)cc1", "note": "(some centres undefined)", "Potency": "inconclusive [inhibitor, single point]"}
{"smiles": "CN(C=[N+](C)C)c1cccc2c1C(=O)c1ccccc1C2=O", "Potency": "inconclusive [inhibitor, single point]"}
{"smiles": "O=C1CCCC(O)=C1N=Nc1c(Cl)cc(C(F)(F)F)cc1Cl", "Potency": "inconclusive [inhibitor, partial curve]"}
{"smiles": "CCCCn1nnnc1NCc1ccc(N2CCCC2)cc1", "activity, negative = inhibition": "inactive: -25.2%"}
{"smiles": "CO/N=C(/C(=O)NC1C(=O)N2C(C(=O)O)=C(CSc3nc(=O)c(O)nn3C)CSC12)c1csc(N)n1", "note": "(centres undefined)", "Potency": "inconclusive [inhibitor, single point]"}
{"smiles": "COc1ccc(/C=C/C(=O)NC(=S)Nc2ccc(N3CCN(C(C)=O)CC3)cc2)cc1", "activity, negative = inhibition": "inactive: 8.27%"}
{"smiles": "C=C(C)C(=O)Nc1cccc(C2=NOC3(C2)C[C@@H](C(N)=O)N(C(=O)[C@H]2CCC(=O)N2)C3)c1", "note": "(some centres undefined)", "Potency": "inconclusive [inhibitor, partial curve]"}
{"smiles": "COCCNC(=S)N(CCc1c(C)[nH]c2ccc(C)cc12)Cc1ccco1", "Potency": "inconclusive [inhibitor, single point]"}
{"smiles": "COc1ccc(Nc2c(-c3ccc(C)cc3)nc3cnccn23)cc1", "Potency": "inconclusive [inhibitor, partial curve, poor fit]"}
{"smiles": "Cc1cccc(OCc2nc(C#N)c(N3CC(C)CC(C)C3)o2)c1", "note": "(centres undefined)", "Potency": "inconclusive [inhibitor, partial curve]"}
{"smiles": "O=C(NCc1ccccc1)c1onc(CSc2ccccc2)c1C(=O)NCC1CC1", "Potency": "inconclusive [activator, partial curve]"}
{"smiles": "COc1ccc2c(CC(=O)NCc3cccs3)coc2c1", "Potency": "inconclusive [inhibitor, single point]"}
{"smiles": "O=C(NCc1ccco1)C1CC(=O)N(CCc2ccccc2)C1", "note": "(centres undefined)", "Potency": "inconclusive [inhibitor, single point]"}
{"smiles": "COc1ccc2nc(NNC(=O)c3cc(=O)c4ccccc4o3)sc2c1", "Potency": "inconclusive [inhibitor, full curve]"}
{"smiles": "Cc1cccc[n+]1C1C(c2ccccc2)C(C#N)=C(C(=C=[N-])C#N)NC1(O)C1CC1", "note": "(centres undefined)", "activity, negative = inhibition": "inactive: -2.94%"}
{"smiles": "COc1ccccc1Nc1nc(-c2ccccc2)nc2ccccc12", "Potency": "inconclusive [activator, partial curve]"}
{"smiles": "COc1ccc(-c2cnn(-c3ccccc3)c2N)cc1OC", "activity, negative = inhibition": "inactive: -5.08%"}
{"smiles": "CN1C(=O)C(=Cc2ccc(N3CCOCC3)o2)C(=O)N(C)C1=O", "Potency": "inconclusive [activator, single point]"}
{"smiles": "Cc1nc2ccccn2c1C(=O)CSc1ccccc1", "activity, negative = inhibition": "inactive: 3.8%"}
{"smiles": "CCS(=O)(=O)N1Cc2ccccc2CC1C(=O)Nc1ccc(OC)cc1", "note": "(centres undefined)", "Potency": "inconclusive [inhibitor, single point]"}
{"smiles": "O=[N+]([O-])c1cc(Br)c(O)c(/C=N/Nc2nnnn2-c2cccc3ccccc23)c1", "Potency": "inconclusive [inhibitor, single point]"}
{"smiles": "Cc1nn(-c2cccc(Cl)c2)c2c1C(c1cccnc1)C(C#N)=C(N)O2", "note": "(centres undefined)", "Potency": "inconclusive [inhibitor, partial curve]"}
{"smiles": "COC(=O)c1ccc(C23CC4(C2)[C@H](CN(Cc2ccc(C(F)(F)F)cc2)[C@@H]4c2ccccc2)C3c2ccccc2)cc1", "note": "(some centres undefined)", "Potency": "inactive"}
